Source: PubChem BioAssay AID1865 (National Center for Advancing Translational Sciences (NCATS), 2009)
The campaign covered roughly 280,000 compounds. About 540 (0.19%) were called active. Inconclusive results, whose numbers are uncertain, are shown with a selection of clear calls. Calls come from the whole dose curve; as a rule, active = well fitted activation curve with a large enough effect; inconclusive = small, poorly fitted or top-dose-only effect; inactive = flat fitted curve, though single readings scatter. A potency beside an inconclusive call is a rough fit, not a confirmed value.

test: Quantitative High-Throughput Screen for Regulators of Epigenetic Control; settings: murine LDR cells, GFP reporter derepression, 30 h; series mostly up to 53.9 µM; note: nearly all actives have a fitted effect of over 60% in size
How it was run: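 Reporter derepression read as number of fluorescent GFP-positive objects, 20-120 um in size, counted by laser-scanning cytometer. Mouse LDR line with an epigenetically silenced CMV-GFP locus; compound incubation 30 h, 37 C.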
Potency is the fitted concentration of half-maximal effect; tags give direction and shape of the fitted curve.

Row | Structure (SMILES) | Potency
1 | C=CCn1c(SCc2cc(=O)n3cc(C)ccc3n2)nnc1-c1cccc(C)c1 | inactive
2 | COc1cc([N+](=O)[O-])cc(/C=N/NC(=O)c2cc(-c3ccccc3)nc3ccccc23)c1O | inactive
3 | COc1ccc(OC)c(/C=C2\S/C(=N/NC(=O)c3ccc4ccccc4c3)NC2=O)c1 | inconclusive: 25.1 µM [activator, single point]
4 | CCOC(=O)c1csc(Nc2nc3ccc(F)cc3s2)n1 | inconclusive: 35.5 µM [activator, single point]
5 | CCN(CC)S(=O)(=O)c1ccc(N/N=C(\C)c2ccc(OC)cc2O)nc1 | inconclusive: 31.6 µM [activator, single point]
6 | Cc1nnc(NC(=O)CSc2nc3c([nH]c4ccccc43)c(=O)n2-c2cccc(Cl)c2)s1 | inconclusive: 15.8 µM [activator, single point]
7 | O=C(/C=C/c1ccncc1)c1ccc(NC(=O)c2ccccc2F)cc1 | inconclusive: 5.01 µM [activator, single point]
8 | O=C(NC1CCCC1)C(NS(=O)(=O)c1ccc(Br)s1)c1ccccc1 (configuration not stated) | inconclusive: 12.6 µM [activator, single point]
9 | O=C(NCc1ccco1)c1ccc2nc3sc4c(c3c(=O)n2c1)CCCC4 | inconclusive: 35.5 µM [activator, single point]
10 | OCc1cnc(SCc2ccccc2)n1Cc1ccccc1 | inactive
11 | COc1ccc(NC(=O)Cn2c(=O)n(-c3ccc(OC)cc3)c(=O)c3sc4ccccc4c32)cc1 | inconclusive: 25.1 µM [activator, partial curve]
12 | O=C(NCCc1ccccc1Cl)c1cc2ccccn2n1 | inconclusive: 15.8 µM [activator, single point]
13 | COc1ccc(CC(=O)Nc2ccc(-c3cn4ccccc4n3)cc2)cc1OC | inconclusive: 35.5 µM [activator, single point]
14 | CCn1c(CN2CCCCC2)nc2cc(NC(=O)COc3ccc(C(C)(C)C)cc3)ccc21 | inconclusive: 0.141 µM [activator, full curve, poor fit]
15 | CC1=C(C(=O)Nc2ccccc2)C(c2ccc(O)cc2)n2nc(-c3ccc(Cl)cc3)nc2N1 (configuration not stated) | inactive
16 | CC(C)(C)c1ccc(-c2nnc(-c3ccccc3NC(=O)c3cccc(C(F)(F)F)c3)o2)cc1 | inconclusive: 3.55 µM [activator, single point]
17 | Cc1cc(NC(=O)/C(C#N)=C/c2ccc(-c3ccc(SC(F)F)cc3)o2)n(-c2ccccc2)n1 | inconclusive: 10 µM [activator, single point]
